Results published in the RNAGym collection of RNA variant scans (doi:10.1073/pnas.2313332121).
Variants at the floor of the assay are shown more often than the library holds them.

B1: TPR 5TU (parent)
chain: GGAUCUUCUCGAUCUAACAAAAAAGACAAAUCUGCCACAAAGCUUGAGAGCAUCUUCGGAUGCAGAGGCGGCAGCCUUCGGUGGCGCGAUAGCGCCAACGUUCUCAACUAUGACACGCAAAACGCGUGCUCCGUUGAAUGGAGUUUAUCAUG

Variants of: B1
Experiment: polymerase ribozyme fitness, log enrichment relative to wild type (log ratio); higher = more active; in vitro selection for triplet polymerase activity
Summary of the method: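 A single round of triplicate in vitro selection, including frozen incubation at −7 °C, was applied to PCR-built, transcribed mutant libraries of each subunit of a heterodimeric triplet polymerase ribozyme. Illumina sequencing of input and output libraries retained genotypes with ≥10 input reads and ≥1 read per output. Fitness is the base-2 logarithm of genotype enrichment divided by wild-type enrichment, from inverse-variance-weighted replicate averages.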

Variant	polymerase ribozyme fitness (log ratio)
A39U U55G U82C C85U U146C	-2.49
A40C A52G G62C A97C U148A	≤ -4.2
A39U U56A C96A A138U	≤ -4.2
A40G G67U C85A A98U U144C U145A	≤ -4.2
A40C G42U U56A C57U G70C C87A G117U	≤ -4.2
A40C C131G	-3.13
A40C A41U A47C U53C G71C A106U G141A	≤ -4.2
A40U A49C	≤ -4.2
A40C A64G C93U C96A C103G A113U C125G	≤ -4.2
A40C U55A U104C	-0.475
A39U U44A C57A A91U G100A U102C	≤ -4.2
A40G G94C	-1.82
A39U A138G	≤ -4.2
A40C A49C U56A A60C G84A G136A	≤ -4.2
A39U G70U C118G C131G	≤ -4.2
A40C U55A G59A A113U C123A	-0.982
A39G U55A U148G	≤ -4.2
A40U C43U U53A U77C G80A G100A A107U	≤ -4.2
A39U G42A C87A G94A A97U A147G U151A	≤ -4.2
A39G G59C G71A U101C A115G G140U	≤ -4.2
A40C A52U U55A C93U	-3.92

Variant	polymerase ribozyme fitness (log ratio)
A39G C93U C118U U134A	≤ -4.2
A40G G46A A64U G81A G88C G126A	≤ -4.2
A40G G46C A49G C85U A97C C118U U145G	≤ -4.2
A40G G62C G84A C93G G100U U151G	≤ -4.2
A39U A40U A91U C95G	≤ -4.2
A39U G100A A110G A150U	≤ -4.2
A40U C51A C87A A142C	≤ -4.2
A40U C79U A121G	-2.75
A40C A52G C79A C85U C99A A106G A142U G152U	≤ -4.2
A39U C87G A91G C108G U151A	≤ -4.2
A39G G62A G94A A120U G143U	≤ -4.2
A39G G80C C93U C118U	-3.96
A39U U53C C108G C149U	≤ -4.2
A40C A52C G86A A98G	-2.37
A39U A52G A107U G128A C129A	≤ -4.2
A39U U45G C85A A91C G92C	≤ -4.2
A40C A122G	0.759
A40G A52C G83U A98C	-3.64
A40G A64C G70A C114U	≤ -4.2
A39U C108A A115U U127G U144A	≤ -4.2
A40C G71C C85G U134G	≤ -4.2

Variant	polymerase ribozyme fitness (log ratio)
A40C U77G	≤ -4.2
A40C A49C C72U G143U U146G	≤ -4.2
A39U G68A A73G C87G C132A G141C U144C	≤ -4.2
A40C A89G A150G	-3.25
A39U G74A C85U A91C C125A	≤ -4.2
A39G G48C G80U A91U G133A G141C	≤ -4.2
A40C A47C C93A A137G U146C	-4.13
A40C G48C U56G	-1.94
A39U U55A C105U C108G C116U A121C	≤ -4.2
A39U C75G A91G U109G	≤ -4.2
A40C A98U A122U	0.766
A39G G84A C116U	-1.91
A39U G83A U151G	≤ -4.2
A40C A49U G128A G141U	≤ -4.2
A40C U55A C85U A97C G100A	≤ -4.2
A40G G50C C79G G88C	≤ -4.2
A39U U53A C76G U145A	≤ -4.2
A40G C57A C72U C87A	≤ -4.2
A39G G117C	-1.91
A40C A89U	0.433
A39G C99A	-3.78

Variant	polymerase ribozyme fitness (log ratio)
A40C G42U G71C U144C U148C	≤ -4.2
A39U A60U G81A C85A C93U	≤ -4.2
A40G C93A A137U	≤ -4.2
A39G G48U C75U C87A G143A	≤ -4.2
A39U U55G G88A U104A U135A U144C C149A	≤ -4.2
A40C A47C G50A C51U U53A U82C G84A G126A C131U	≤ -4.2
A40C U61G C87G C93A	≤ -4.2
A40C A41C A52U A91U C95G G117C G128U G141C U146A	≤ -4.2
A39G G59C U104A	-3.12
A40G U56A	-1.21
A40U C51G C57U G83A G84A G117C U144A U146A	≤ -4.2
A40G C43U G124A	≤ -4.2
A40G G58A A64G C85A G94A A150C	≤ -4.2
A39U U78A G83A G84C A115U U134C G136U	≤ -4.2
A39G U55A G84C C125U	≤ -4.2
A40C G42A A52C G94C C99U	≤ -4.2
A40U C76A C87G C108G	≤ -4.2
A40C U45A C51U C76U C85A A106G C118U U134G	≤ -4.2
A40G A52G A91C A119U G128A	≤ -4.2
A39U G100C U148A	-4.2
